137 sequences from paper PMC5515408 can be followed below.

The other results are listed elsewhere or left out. At the low end of the ranking the order means little.

The test deals with MYC (p64) + MAX (p21), in MYC:MAX. Nature of the test: protein-binding microarray (anti-MAX antibody). The settings on record: PBM: 15 mM Tris-HCl pH 7.5, 100 mM KCl, 0.075% NP40, 7.5 mM beta-mercaptoethanol, 375 ng/ul BSA, 8 ng/ul poly(dA-dT):(dA-dT), 550 ng complex, 60 min, room …; high values mean tight binding; double strand, one strand shown; sequences stand for … in CCGGC…TTAATAGCTAAGATTACTATATCGACG
On to TGATAACACGTA, for which the binding signal (log2 normalized fluorescence) was 0.413.

For TGACAGCCAGTA, the binding signal (log2 normalized fluorescence) was found to be 0.0649.

TGATAGTTAGTA: the binding signal (log2 normalized fluorescence) was -0.14.

As for TGATCAGGTGTA, the binding signal (log2 normalized fluorescence) was 0.37.

For TGAAGTATTGTA, the binding signal (log2 normalized fluorescence) was found to be 0.103.

Consider TGAAGTTGTGTA, for which the binding signal (log2 normalized fluorescence) is 0.0113.

TGACCAATGGTA: the binding signal (log2 normalized fluorescence) was determined as 0.17.

Consider TGATAAATGGTA, for which the binding signal (log2 normalized fluorescence) turned out to be 0.0621.

Consider TGATTGGTAGTA, for which the binding signal (log2 normalized fluorescence) is -0.171.

Turning to TGATAGGATGTA, the binding signal (log2 normalized fluorescence) amounted to 0.00287.

For the sequence TGACTATCGGTA, the binding signal (log2 normalized fluorescence) is -0.109.

Take TGATAAATAGTA: the binding signal (log2 normalized fluorescence) was -0.137.

As to TGAGATACTGTA, the binding signal (log2 normalized fluorescence) was 0.0136.

ATCCACGTGGTA: the binding signal (log2 normalized fluorescence) was found to be 0.471.

Take TGACAGAGCGTA: the binding signal (log2 normalized fluorescence) was 0.145.

Regarding TGACACGGGTTA, the binding signal (log2 normalized fluorescence) was found to be 0.444.

With AATCTAGTCTAC, the binding signal (log2 normalized fluorescence) turned out to be 0.0163.

As to TGCCAGGTAGTA, the binding signal (log2 normalized fluorescence) is 0.00772.

Take TGACGCCGAGTA: the binding signal (log2 normalized fluorescence) was -0.0126.

Regarding TGAGCGTCCGTA, the binding signal (log2 normalized fluorescence) was -0.17.

Turning to TGAGCCGAAGTA, the binding signal (log2 normalized fluorescence) was -0.142.

In the case of TGACATTCTGTA, the binding signal (log2 normalized fluorescence) was -0.0655.

For the sequence TGACTTTGGGTA, the binding signal (log2 normalized fluorescence) is -0.176.

Regarding TGACCCAAAGTA, the binding signal (log2 normalized fluorescence) stood at 0.072.

As for TGATACACCGTA, the binding signal (log2 normalized fluorescence) was 0.107.

With TGACTGATCGTA, the binding signal (log2 normalized fluorescence) stood at 0.13.

As to TGATTTCTAGTA, the binding signal (log2 normalized fluorescence) is -0.158.

As to TGAAGCTTCGTA, the binding signal (log2 normalized fluorescence) stood at 0.0294.

TGAGGAGGTGTA: the binding signal (log2 normalized fluorescence) was -0.0208.

With TGACACATTGTA, the binding signal (log2 normalized fluorescence) was 0.375.

For the sequence TGAAGGGCAGTA, the binding signal (log2 normalized fluorescence) was -0.0227.

As to TGAAGGGATGTA, the binding signal (log2 normalized fluorescence) stood at 0.0676.

Regarding TGAACGTTCGTA, the binding signal (log2 normalized fluorescence) stood at 0.265.

For TGAACCGACGTA, the binding signal (log2 normalized fluorescence) turned out to be 0.0827.

As to TAACACTTGGTA, the binding signal (log2 normalized fluorescence) was determined as 0.334.

As to TGACCCGGTGTA, the binding signal (log2 normalized fluorescence) was 0.0386.

With TGAGACCCTGTA, the binding signal (log2 normalized fluorescence) came out at 0.0923.

With TGACCGTCCGTA, the binding signal (log2 normalized fluorescence) was 0.211.

For the sequence TGACACGTTTAA, the binding signal (log2 normalized fluorescence) worked out at 0.5.

Take TGAATTATTGTA: the binding signal (log2 normalized fluorescence) was -0.0941.

Regarding TGAATGCCCGTA, the binding signal (log2 normalized fluorescence) was -0.026.

Regarding TGATTTTGTGTA, the binding signal (log2 normalized fluorescence) is -0.109.

For TGACCTTTGGTA, the binding signal (log2 normalized fluorescence) stood at 0.00898.

Take TGACCTTAAGTA: the binding signal (log2 normalized fluorescence) is 0.117.

With TGAGATATCGTA, the binding signal (log2 normalized fluorescence) worked out at 0.0131.

Consider TGACACTCGGGA, for which the binding signal (log2 normalized fluorescence) was determined as 0.262.

For TGAGAGGAGGTA, the binding signal (log2 normalized fluorescence) is -0.0221.

As to TGAAGGTTGGTA, the binding signal (log2 normalized fluorescence) stood at 0.0682.

Regarding TGACGGGCCGTA, the binding signal (log2 normalized fluorescence) turned out to be 0.193.

Turning to TGAATTCTTGTA, the binding signal (log2 normalized fluorescence) is -0.0721.

With TGATCCGTGGTA, the binding signal (log2 normalized fluorescence) turned out to be 0.151.

Consider TGACAGATTGTA, for which the binding signal (log2 normalized fluorescence) is 0.201.

In the case of TGAACAGACGTA, the binding signal (log2 normalized fluorescence) was determined as 0.177.

As to TGACGTCATGTA, the binding signal (log2 normalized fluorescence) stood at 0.394.

Consider TGACCCTTTGTA, for which the binding signal (log2 normalized fluorescence) is 0.115.

As for TGATATGTGGTA, the binding signal (log2 normalized fluorescence) is 0.21.

In the case of TGAGCTACCGTA, the binding signal (log2 normalized fluorescence) was 0.106.

Turning to TGAAACTGTGTA, the binding signal (log2 normalized fluorescence) amounted to 0.119.

On to TGATTCTCTGTA, for which the binding signal (log2 normalized fluorescence) was -0.15.

For the sequence TGACCTACCGTA, the binding signal (log2 normalized fluorescence) turned out to be 0.209.

As to TGAGATGTAGTA, the binding signal (log2 normalized fluorescence) worked out at 0.0507.

As for TGAACTTTAGTA, the binding signal (log2 normalized fluorescence) was -0.0253.

For TGAGTTGCGGTA, the binding signal (log2 normalized fluorescence) was 0.0296.

As for TAAGAAGTGGTA, the binding signal (log2 normalized fluorescence) turned out to be 0.209.

For the sequence TGACTGGTTGTA, the binding signal (log2 normalized fluorescence) came out at 0.021.

For TGATTTAGGGTA, the binding signal (log2 normalized fluorescence) was -0.26.

As to TGACGTACCGTA, the binding signal (log2 normalized fluorescence) was 0.255.

In the case of TGACTCTAAGTA, the binding signal (log2 normalized fluorescence) was -0.173.

Turning to TGACACGATTTA, the binding signal (log2 normalized fluorescence) amounted to 0.445.

As to TGATCTTGCGTA, the binding signal (log2 normalized fluorescence) was 0.021.

As to TGAGGCGAGTTT, the binding signal (log2 normalized fluorescence) came to 0.245.

TGAATGATTGTA: the binding signal (log2 normalized fluorescence) came to 0.187.

As to TGAGCATGTGTA, the binding signal (log2 normalized fluorescence) amounted to 0.737.

With TGACGAACAGTA, the binding signal (log2 normalized fluorescence) was -0.0252.

With TGATTGTCAGTA, the binding signal (log2 normalized fluorescence) was -0.0168.

Turning to TGACAACAGGTA, the binding signal (log2 normalized fluorescence) came to 0.0907.

As for TGACACGTCGCA, the binding signal (log2 normalized fluorescence) was found to be 0.416.

TGAGTAGGGGTA: the binding signal (log2 normalized fluorescence) worked out at 0.208.

For TGACTAGGTGTA, the binding signal (log2 normalized fluorescence) is -0.0433.

As to TGAAGCGAGGTA, the binding signal (log2 normalized fluorescence) came to 0.249.

TGAACGACTGTA: the binding signal (log2 normalized fluorescence) was 0.123.

For the sequence TGAGCGTCTGTA, the binding signal (log2 normalized fluorescence) was -0.0215.

For TGACCACGTGTA, the binding signal (log2 normalized fluorescence) was found to be 0.807.

On to TGAGTATACGTA, for which the binding signal (log2 normalized fluorescence) amounted to 0.0171.

For CCACACGTGGTA, the binding signal (log2 normalized fluorescence) was found to be 0.945.

Consider TGATGGTACGTA, for which the binding signal (log2 normalized fluorescence) is 0.157.

For TGACTAGTCGTA, the binding signal (log2 normalized fluorescence) was -0.0843.

Take TGAGAGTTGGTA: the binding signal (log2 normalized fluorescence) is -0.108.

In the case of TGAGTATAGGTA, the binding signal (log2 normalized fluorescence) was -0.243.

In the case of TGAATACGGGTA, the binding signal (log2 normalized fluorescence) is -0.0418.

On to TGAGCCGTCGTA, for which the binding signal (log2 normalized fluorescence) is -0.123.

With GGACAACTGGTA, the binding signal (log2 normalized fluorescence) was 0.137.

TGAACAAAAGTA: the binding signal (log2 normalized fluorescence) is -0.0482.

As for TGAAATAATGTA, the binding signal (log2 normalized fluorescence) was 0.121.

On to TGAGTCGCGGTA, for which the binding signal (log2 normalized fluorescence) was found to be 0.0682.

With TGACAACTGGTT, the binding signal (log2 normalized fluorescence) stood at 0.195.

As to TGAATTATCGTA, the binding signal (log2 normalized fluorescence) was -0.0569.

Consider TGACTCCCGGTA, for which the binding signal (log2 normalized fluorescence) turned out to be 0.101.

On to CGACATGTGGTA, for which the binding signal (log2 normalized fluorescence) is 0.663.

Regarding TGACGCTTCGTA, the binding signal (log2 normalized fluorescence) came out at 0.132.

On to TGAGGTTAAGTA, for which the binding signal (log2 normalized fluorescence) is -0.319.

As for CGCCACGTAGTA, the binding signal (log2 normalized fluorescence) was found to be 0.312.

For the sequence TGAGTATGGGTA, the binding signal (log2 normalized fluorescence) was 0.0873.

Consider TGAAGATCAGTA, for which the binding signal (log2 normalized fluorescence) is -0.0886.

TGACACGTGGCA: the binding signal (log2 normalized fluorescence) is 0.835.

On to TGAGTAGTCGTA, for which the binding signal (log2 normalized fluorescence) was -0.218.

For TGACTTTTAGTA, the binding signal (log2 normalized fluorescence) was -0.0591.

With TGAGCTGAGGTA, the binding signal (log2 normalized fluorescence) was -0.206.

Turning to TGAATGGGCGTA, the binding signal (log2 normalized fluorescence) worked out at 0.45.

For TGAGATGGTGTA, the binding signal (log2 normalized fluorescence) was -0.0153.

For the sequence TGATGAGAGGTA, the binding signal (log2 normalized fluorescence) was -0.0276.

As to TGAGTGAGAGTA, the binding signal (log2 normalized fluorescence) is -0.101.

With TGATGCACCGTA, the binding signal (log2 normalized fluorescence) was 0.308.

With TGACGTATTGTA, the binding signal (log2 normalized fluorescence) came out at 0.174.

TGACGGTGGGTA: the binding signal (log2 normalized fluorescence) stood at 0.0267.

Regarding TGACTGCAAGTA, the binding signal (log2 normalized fluorescence) was determined as 0.204.

With TGACTGTCTGTA, the binding signal (log2 normalized fluorescence) is -0.00359.

Regarding TGAGTGATTGTA, the binding signal (log2 normalized fluorescence) is -0.021.

Turning to TGACACGTGACT, the binding signal (log2 normalized fluorescence) turned out to be 0.628.

With TGAGGTTGAGTA, the binding signal (log2 normalized fluorescence) was -0.0766.

With TGATGCCTCGTA, the binding signal (log2 normalized fluorescence) is 0.1.

On to TGATCTTGAGTA, for which the binding signal (log2 normalized fluorescence) stood at 0.000935.

As for TGATAGACGGTA, the binding signal (log2 normalized fluorescence) is -0.17.

In the case of TGACGCAGGGTA, the binding signal (log2 normalized fluorescence) amounted to 0.0395.

Take TCTCACGTGGTA: the binding signal (log2 normalized fluorescence) was 0.891.

TGACAAAAGGTA: the binding signal (log2 normalized fluorescence) came out at 0.102.

Turning to TGAGACATTGTA, the binding signal (log2 normalized fluorescence) was determined as 0.0415.

Take TGACACGGGATC: the binding signal (log2 normalized fluorescence) came to 0.253.

As for TGAACTCGAGTA, the binding signal (log2 normalized fluorescence) turned out to be 0.253.

For the sequence TGAAGCCCGGTA, the binding signal (log2 normalized fluorescence) is -0.0353.

TGACACGGCCTA: the binding signal (log2 normalized fluorescence) stood at 0.178.

For TGACAACCAGTA, the binding signal (log2 normalized fluorescence) was 0.216.

As for TGACGTACTGTA, the binding signal (log2 normalized fluorescence) is 0.177.

Take TGACCCATCGTA: the binding signal (log2 normalized fluorescence) was found to be 0.155.

In the case of TGAACTATGGTA, the binding signal (log2 normalized fluorescence) was -0.0341.

On to TGATGCTGTGTA, for which the binding signal (log2 normalized fluorescence) came out at 0.0588.

In the case of TGACAGAGAGTA, the binding signal (log2 normalized fluorescence) was 0.0472.
